Assay results from patent US11142550B2, “Split inteins with exceptional splicing activity” (THE TRUSTEES OF PRINCETON UNIVERSITY, priority 2016, dated 2021).

B1: Batch 2: Ssp^N batch mutant (L56F, S70K, A83P, E85D) on chimera 1; plasmid 9, SEQ ID NO: 369 (protein)
chain: MGSSHHHHHHGSGLVPRGSASMSDSEVNQEAKPEVKPEVKPETHINLKVSDGSSEIFFKIKKTTPLRRLMEAFAKRQGKEMDSLRFLYDGIRIQADQTPEDLDMEDNDIIEAHREQIGGAEYCLSFGTEILTVEYGPLPIGKIVSEEINCSVYSVDPEGRVYTQAIAQWHDRGEQEVFEYELEDGSVIRATKDHRFLTTDYQLLPIDEIFARQLDLLTLENIKQTEEALDNHRLPFPLLDAGTIK
B2: Batch 1: Ssp^N batch mutant (R73K, L75M, Y79G, L81M) on chimera 1; plasmid 5, SEQ ID NO: 365 (protein)
chain: B1 chain with F178L, K192S, R195K, L197M, Y201G, L203M, P205A, D207E

Tested on: split intein constructs with short native extein sequences
Assay: in vitro protein trans-splicing (PTS) assay, RP-HPLC / ESI-MS kinetics
Type: biochemical
Settings: 30° C., three state kinetic model
Text: Thus, attention was focused on ‘second shell’ residues, those directly adjacent to the active site. To simplify this analysis, a batch mutagenesis strategy was employed in conjunction with a previously reported in vitro PTS assay.^5 This assay uses split intein constructs with short native extein sequences and allows the rates of branched intermediate formation (k1,k2) and its resolution to final splice products (k3) to be determined using a three state kinetic model.
Splicing reactions were carried out as adapted from a previously described protocol. […] For all splicing reactions containing either Npu^C-CFN or Cfa^C-CFN, reaction progress was monitored by RP-HPLC. […]
Kinetic analysis was carried out as previously described.^1 Briefly, five species (1-5) are separated by RP-HPLC, and peak areas are determined. For ESI-MS, peak areas are calculated for species 1-4. […] Each splicing reaction was carried out in triplicate with each replicate analyzed separately. […]
All splicing reactions comparing Npu and Cfa were separated by RP-HPLC with peak areas once again calculated using the manufacturer's software. For these reactions, peak areas for the starting material and branched intermediate (species 1 and 2) and product (species 3, 4, 5) were calculated. […]

| Molecule | rate of branch formation (k1, k2) compared to native Npu | rate of branch resolution (k3) compared to native Npu |
| --- | --- | --- |
| B1 | completely restored |  |
| B2 |  | restored the majority |

Changes are numbered by the printed parent chain. Names may count otherwise.
